In the supplement of paper PMC8948288:
Shown are siRNA guide strands that differ only in the seed, positions 2 to 7.

Assays:
H4 = assay: cell viability relative to siNT1 (ATP content); H4 human neuroglioma and GL261 mouse glioma; higher = less toxic; details: siRNA concentration 10 nM; 96 h; human
Procedure: (§1)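 Arrayed screen of all 4096 6mer seeds. Each seed sits at guide-strand positions 2-7 of a neutral 19mer siRNA backbone (siNT1-based, passenger strand 2'-O-methyl modified at positions 1-2 to block RISC loading, 3' DNA overhangs). The guide strand is built here as U + seed + ACAUGUAAACCA. Cells were reverse transfected in triplicate in 384-well plates (H4 at 10 nM, GL261 at 25 nM) with Lipofectamine RNAiMAX. Viability was read as ATP content (CellTiter-Glo) 96 h after transfection and normalised to siNT1 (%).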

GL261 = assay: as above; details: siRNA concentration 25 nM; 96 h; mouse
Procedure: as §1
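Note: cells reverse transfected with siRNA duplexes via lipid reagent, ATP read by luminescence, triplicate wells, values scaled to mean viability with non-targeting control siNT1.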

| Sequence | cell viability (H4) [%] | cell viability (GL261) [%] |
| --- | --- | --- |
| UCCGCGUACAUGUAAACCA | 76.9 | 71.1 |
| UCCGCUAACAUGUAAACCA | 70.8 | 75.2 |
| UCCGCUCACAUGUAAACCA | 66.7 | 15.8 |
| UCCGCUGACAUGUAAACCA | 74.4 | 61.4 |
| UCCGCUUACAUGUAAACCA | 89 | 41.5 |
| UCCGGAAACAUGUAAACCA | 72.9 | 57 |
| UCCGGACACAUGUAAACCA | 36.7 | 7.79 |
| UCCGGAGACAUGUAAACCA | 55.9 | 40.1 |
| UCCGGAUACAUGUAAACCA | 52.1 | 38.6 |
| UCCGGCAACAUGUAAACCA | 56.1 | 36.2 |
| UCCGGCCACAUGUAAACCA | 25 | 11.5 |
| UCCGGCGACAUGUAAACCA | 71.2 | 15.5 |
| UCCGGCUACAUGUAAACCA | 27 | 17.7 |
| UCCGGGAACAUGUAAACCA | 61.5 | 39.7 |
| UCCGGGCACAUGUAAACCA | 14.2 | 14.6 |
| UCCGGGGACAUGUAAACCA | 26.6 | 19.7 |
| UCCGGGUACAUGUAAACCA | 35.6 | 16 |
| UCCGGUAACAUGUAAACCA | 73 | 47 |
| UCCGGUCACAUGUAAACCA | 30.8 | 14.2 |
| UCCGGUGACAUGUAAACCA | 62.8 | 72 |
| UCCGGUUACAUGUAAACCA | 64.6 | 34.5 |
| UCCGUAAACAUGUAAACCA | 80.3 | 50.2 |

| Sequence | cell viability (H4) [%] | cell viability (GL261) [%] |
| --- | --- | --- |
| UCCGUACACAUGUAAACCA | 72.3 | 56.4 |
| UCCGUAGACAUGUAAACCA | 84.7 | 47.8 |
| UCCGUAUACAUGUAAACCA | 105 | 40.4 |
| UCCGUCAACAUGUAAACCA | 81.6 | 31.1 |
| UCCGUCCACAUGUAAACCA | 28.7 | 14 |
| UCCGUCGACAUGUAAACCA | 65.1 | 42.7 |
| UCCGUCUACAUGUAAACCA | 46.5 | 25.6 |
| UCCGUGAACAUGUAAACCA | 82.5 | 31.4 |
| UCCGUGCACAUGUAAACCA | 10.5 | 14.8 |
| UCCGUGGACAUGUAAACCA | 55.1 | 25.4 |
| UCCGUGUACAUGUAAACCA | 61.4 | 27.1 |
| UCCGUUAACAUGUAAACCA | 102 | 81.2 |
| UCCGUUCACAUGUAAACCA | 29.2 | 24.5 |
| UCCGUUGACAUGUAAACCA | 78.7 | 48.3 |
| UCCGUUUACAUGUAAACCA | 81.8 | 38 |
| UCCUAAAACAUGUAAACCA | 106 | 46.4 |
| UCCUAACACAUGUAAACCA | 65.6 | 26 |
| UCCUAAGACAUGUAAACCA | 82.9 | 75.7 |
| UCCUAAUACAUGUAAACCA | 91.1 | 66.3 |
| UCCUACAACAUGUAAACCA | 86.8 | 45 |
| UCCUACCACAUGUAAACCA | 49.5 | 19.8 |
| UCCUACGACAUGUAAACCA | 76 | 47.1 |

| Sequence | cell viability (H4) [%] | cell viability (GL261) [%] |
| --- | --- | --- |
| UCCUACUACAUGUAAACCA | 63.4 | 35.5 |
| UCCUAGAACAUGUAAACCA | 73.3 | 45.5 |
| UCCUAGCACAUGUAAACCA | 17.8 | 10 |
| UCCUAGGACAUGUAAACCA | 56.1 | 45.7 |
| UCCUAGUACAUGUAAACCA | 72.2 | 29.3 |
| UCCUAUAACAUGUAAACCA | 106 | 51.3 |
| UCCUAUCACAUGUAAACCA | 62.3 | 14.1 |
| UCCUAUGACAUGUAAACCA | 82 | 50.2 |
| UCCUAUUACAUGUAAACCA | 89.8 | 37.6 |
| UCCUCAAACAUGUAAACCA | 79.4 | 26.5 |
| UCCUCACACAUGUAAACCA | 68.2 | 20.5 |
| UCCUCAGACAUGUAAACCA | 70.1 | 23 |
| UCCUCAUACAUGUAAACCA | 86.4 | 25.3 |
| UCCUCCAACAUGUAAACCA | 72.3 | 21.4 |
| UCCUCCCACAUGUAAACCA | 58.7 | 12.8 |
| UCCUCCGACAUGUAAACCA | 74.6 | 30.8 |
| UCCUCCUACAUGUAAACCA | 52.1 | 19.4 |
| UCCUCGAACAUGUAAACCA | 75 | 38.1 |
| UCCUCGCACAUGUAAACCA | 63.5 | 20.3 |
| UCCUCGGACAUGUAAACCA | 78.3 | 19.8 |
| UCCUCGUACAUGUAAACCA | 95.4 | 25.9 |
| UCCUCUAACAUGUAAACCA | 112 | 59.5 |

| Sequence | cell viability (H4) [%] | cell viability (GL261) [%] |
| --- | --- | --- |
| UCCUCUCACAUGUAAACCA | 84.9 | 19.2 |
| UCCUCUGACAUGUAAACCA | 71.4 | 46.4 |
| UCCUCUUACAUGUAAACCA | 77.9 | 35.5 |
| UCCUGAAACAUGUAAACCA | 86.8 | 35.5 |
| UCCUGACACAUGUAAACCA | 30.2 | 19.4 |
| UCCUGAGACAUGUAAACCA | 111 | 52.7 |
| UCCUGAUACAUGUAAACCA | 91.3 | 38.1 |
| UCCUGCAACAUGUAAACCA | 98 | 40.1 |
| UCCUGCCACAUGUAAACCA | 29.2 | 7.42 |
| UCCUGCGACAUGUAAACCA | 103 | 40.7 |
| UCCUGCUACAUGUAAACCA | 41.7 | 7.87 |
| UCCUGGAACAUGUAAACCA | 66.2 | 21.4 |
| UCCUGGCACAUGUAAACCA | 7.81 | 7.55 |
| UCCUGGGACAUGUAAACCA | 10.2 | 12.6 |
| UCCUGGUACAUGUAAACCA | 14.1 | 30.6 |
| UCCUGUAACAUGUAAACCA | 84.7 | 37 |
| UCCUGUCACAUGUAAACCA | 30.1 | 9 |
| UCCUGUGACAUGUAAACCA | 59.2 | 33.2 |
| UCCUGUUACAUGUAAACCA | 70.9 | 16.2 |
| UCCUUAAACAUGUAAACCA | 87.1 | 55 |
